Source: PubChem BioAssay AID1768 (National Center for Advancing Translational Sciences (NCATS), 2009)
Screen size: about 270,000 compounds; about 620 (0.23%) were called active. Inconclusive results, whose numbers are uncertain, are shown with a selection of clear calls. Calls come from the whole dose curve; as a rule, active = well fitted inhibition curve with a large enough effect in the polarisation, with a control signal flat (not every such curve was filed as active); inconclusive = small, poorly fitted or top-dose-only effect, or effect the other way, or a change in a side signal; inactive = no such curve, though single readings can be large or run the other way; the % refers to the polarisation. Potencies beside an inconclusive call are fits to weak or partial responses and may not hold up. A note “side channel” means that the fit belongs to a control or component signal, not to the main read-out.

Target: Menin (Homo sapiens) (UniProt O00255)
Chain of UniProt O00255 (O00255 whole entry, looked up): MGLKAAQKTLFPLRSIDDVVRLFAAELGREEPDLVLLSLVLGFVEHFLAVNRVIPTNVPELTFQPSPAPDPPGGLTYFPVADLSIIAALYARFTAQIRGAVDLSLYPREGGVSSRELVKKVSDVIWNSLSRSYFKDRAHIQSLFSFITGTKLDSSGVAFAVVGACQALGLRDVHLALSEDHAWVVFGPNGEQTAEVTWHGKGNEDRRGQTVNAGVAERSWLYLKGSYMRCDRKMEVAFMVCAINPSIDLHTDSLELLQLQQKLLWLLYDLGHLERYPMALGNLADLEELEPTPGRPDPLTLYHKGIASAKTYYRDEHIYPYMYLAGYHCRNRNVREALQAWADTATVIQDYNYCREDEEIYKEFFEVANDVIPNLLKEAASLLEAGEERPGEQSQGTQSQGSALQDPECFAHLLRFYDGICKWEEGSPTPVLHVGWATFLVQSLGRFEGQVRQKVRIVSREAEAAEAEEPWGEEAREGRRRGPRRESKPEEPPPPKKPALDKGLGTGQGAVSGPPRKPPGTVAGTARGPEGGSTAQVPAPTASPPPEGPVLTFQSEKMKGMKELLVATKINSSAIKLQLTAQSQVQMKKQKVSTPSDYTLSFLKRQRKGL
Assay: qHTS Assay for Inhibitors Targeting the Menin-MLL Interaction in MLL Related Leukemias: Competition With Texas Red Labeled MLL-derived Mutant Peptide
Conditions: fluorescence polarization; series mostly up to 61.6 µM
Potency is the fitted concentration of half-maximal effect; tags give direction and shape of the fitted curve or compound fluorescence and quenching.

Q: `c1cc2c(cc1C1CCCCC1)c1c3n2CCCNC3CCC1` (stereo not drawn) was tested. Which Potency did it give?
A: The Potency was inconclusive: 0.631 µM [fluorescent, side channel, full curve].

Q: How did the Potency turn out when `N#Cc1c(-c2ccccc2)cc(-c2ccc(O)cc2)nc1N` was run?
A: The Potency was “inactive”.

Q: Which Potency does the source give for `COc1ccc(-n2c(=S)[nH]c3cc(C(=O)Nc4cc(OC)c(OC)c(OC)c4)ccc3c2=O)c(OC)c1` here?
A: The Potency was inconclusive: 39.8 µM [fluorescent, side channel, single point].

Q: Which Potency does the source give for `COc1cc(/C=C2/C(=O)ON=C2C)ccc1OCc1ccccc1F` here?
A: Its Potency is inconclusive: 28.2 µM [quencher, side channel, partial curve].

Q: For `O=C(Nc1ccc(N=Nc2ccccc2)cc1)c1cccc(Cl)c1`, which Potency is on record?
A: Its Potency is inconclusive: 25.1 µM [inhibitor, single point].

Q: Which Potency does the source give for `Cc1ccc(S(=O)(=O)N(CCCN(C)C)Cc2ccc3c(c2)OCO3)cc1` here?
A: The Potency was inconclusive: 17.8 µM [inhibitor, partial curve].

Q: `Cc1cc(Br)cc(C)c1OCCCCN(C)C` was tested. Which Potency did it give?
A: Its Potency is inconclusive: 25.1 µM [inhibitor, single point].

Q: For `COc1ccc(C2c3c(ncn(CCN4CCOCC4)c3=N)Oc3ccc4ccccc4c32)cc1OC` (stereo not drawn), which Potency is on record?
A: Its Potency is inconclusive: 7.08 µM [inhibitor, single point].

Q: Which Potency does the source give for `O=C(NCc1ccccn1)C1CC(c2ccc(Cl)c(Cl)c2)=NO1` (stereo not drawn) here?
A: Its Potency is “inactive”.

Q: With `O=C(CCc1nnc(CCCc2ccccc2)o1)N1CCCCCC1` as the compound, how does the Potency read?
A: The Potency was inconclusive: 20 µM [inhibitor, partial curve].

Q: How did the Potency turn out when `CCN(CC)C(=O)CC(c1ccc(F)cc1)c1ccco1` (stereo not drawn) was run?
A: The Potency was inconclusive: 2.51 µM [inhibitor, full curve].

Q: `CCn1c2ccccc2c2cc(NC(=O)Cc3ccc(S(=O)(=O)N4CCOCC4)s3)ccc21` was tested. Which Potency did it give?
A: Its Potency is inconclusive: 3.98 µM [quencher, side channel, full curve].

Q: For `COc1c(N)c2ccccc2[nH]c1=O`, which Potency is on record?
A: The Potency was “inactive”.

Q: With `COc1ccc(OC)c(-c2csc(NC(=O)C3COc4ccccc4O3)n2)c1` (stereo not drawn) as the compound, how does the Potency read?
A: The Potency was “inactive”.

Q: `Cc1ccc(/C=C(\C#N)C(=O)N2CCCC2)c(C)c1` was tested. Which Potency did it give?
A: Its Potency is inconclusive: 22.4 µM [fluorescent, side channel, single point].

Q: Which Potency does the source give for `Cc1ccccc1CNCc1ccc2c(c1)OCO2` here?
A: Its Potency is inconclusive: 25.1 µM [inhibitor, partial curve].

Q: How did the Potency turn out when `CS(=O)(=O)Nc1ccc(C(=O)NCc2ccc3c(c2)OCO3)cc1` was run?
A: Its Potency is inconclusive: 22.4 µM [fluorescent, side channel, partial curve, poor fit].

Q: `Cc1ccccc1NC(=O)c1ccc2nccnc2c1` was tested. Which Potency did it give?
A: The Potency was inconclusive: 1.26 µM [quencher, side channel, full curve].
